Several values for one entry are separate records, joined by “and”; a condition that tells them apart may be missing. Identical values can stand only once. In all, about 420,000 compounds went through this assay and about 64,000 (15%) were called active. The shares of active, inactive and inconclusive entries below differ from those in the screen. Calls come from the whole dose curve; as a rule, active = well fitted inhibition curve with a large enough effect; inconclusive = small, poorly fitted or top-dose-only effect; inactive = flat fitted curve, though single readings scatter. A potency beside an inconclusive call is a rough fit, not a confirmed value.
assay: qHTS for Inhibitors of human tyrosyl-DNA phosphodiesterase 1 (TDP1): qHTS in cells in absence of CPT; settings: DT40 Tdp1-/- hTDP1 cells, no CPT, ATP luminescence, 48 h; series mostly up to 46.2 µM; note: nearly all actives have a fitted effect of over 55% in size
Summary of the method: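 A cellular qHTS used chicken DT40 cells lacking endogenous Tdp1 but carrying stably transfected human TDP1. Compounds were applied without camptothecin, and cell growth kinetics were judged by ATP-dependent luminescence after ≥48 hr.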
Potency is the fitted concentration of half-maximal effect; tags give direction and shape of the fitted curve.

| SMILES | Potency |
| --- | --- |
| CC1=NN(c2ccc([N+](=O)[O-])cc2)C(=O)C1 | inactive |
| Cc1ccc(C(=O)NCCc2ccc(S(=O)(=O)N3CCCC3)cc2)cc1 | inactive |
| CC(C)NC(=O)C1(C)CCN1C(=O)c1ccccc1F (stereo unspecified) | inactive |
| CN(C(=O)COC(=O)c1cc(S(=O)(=O)N2CCOCC2)ccc1F)C1CCS(=O)(=O)C1 (stereo unspecified) | inactive |
| O=C(c1ccc(Cl)c(Cl)c1)N1CCC(=O)N(C(COCc2ccccc2)Cc2ccccc2)CC1 (stereo unspecified) | active: 23.1 µM |
| COc1c(C)cc(C(=O)C2CCCN(Cc3ccc(Oc4ncccn4)cc3)C2)cc1C (stereo unspecified) | active: 14.6 µM |
| CCN1C(=O)C(=O)N(CC(=O)NC(C)CCc2ccccc2)C1=O (stereo unspecified) | inactive |
| COc1cc2[nH]c(=O)c(C(=O)NCc3ccc(F)cc3)c(O)c2cc1OC | inconclusive: 11.6 µM [inhibitor, partial curve, poor fit] |
| CCOc1ccc(CCNC(=O)CS(=O)Cc2nc(-c3ccc(C)cc3)oc2C)cc1OCC (stereo unspecified) | inconclusive: 29.1 µM [inhibitor, single point] and inconclusive: 18.4 µM [inhibitor, single point] |
| O=C(Cn1cnc2c(OCc3ccccc3)ncnc21)NCc1nc2ccccc2[nH]1 | inconclusive: 23.1 µM [inhibitor, single point] |
| COc1ccc2oc(C)c(C(=O)c3ccc([N+](=O)[O-])cc3)c2c1 | inconclusive: 29.1 µM [inhibitor, single point] |
| Cc1ccc(Cn2ccn(CC(=O)Nc3ccccc3C(F)(F)F)c(=O)c2=O)cc1 | inactive |
| COc1ccc(CC(=O)Oc2ccc(Cl)cc2Br)cc1S(=O)(=O)N1CCOCC1 | inactive |
| COC(=O)c1sccc1NC(=S)NCc1ccc(Cl)cc1 | inactive |
| Cc1cccc(-c2noc(CNC(=O)Nc3ccc(F)cc3)n2)c1 | inactive |
| CCc1ccc(C(O)c2ncc(-c3cccc(F)c3)[nH]2)cc1 (stereo unspecified) | inconclusive: 29.1 µM [inhibitor, single point] |
| COCCCNC(=S)N1CCC(NC(=O)c2ccco2)CC1 | inactive |
| CCOC(=O)C1(Cc2ccc(Cl)cc2)CCN(C(C)Cc2ccc(O)c(OC)c2)CC1 (stereo unspecified) | active: 3.26 µM |
| Cc1ccc(NC(=O)CCCNC(=O)c2ccc(Cl)cc2)c(Br)c1 | inactive |
| COc1ccc(C(=O)N2CCC3(CCN(C(=O)Nc4cccc(F)c4)CC3)CC2)cc1 | inconclusive: 20.6 µM [inhibitor, single point] |
| Cc1n[nH]c(C)c1Sc1ccccc1N=Cc1cc(Cl)cc([N+](=O)[O-])c1O | inconclusive: 25.9 µM [inhibitor, single point] |
| CC(=O)c1cccc(Nc2cc(C)nc3ccccc23)c1 | inactive |
| CCc1nc2c(OCc3ccccc3C(=O)OC)cccn2c1N(C)C(=O)c1ccncc1 | inactive |
| CC(C)[C@H](NC(=O)c1ccco1)C(=O)OCc1cc(=O)n2c(n1)sc1ccccc12 | inconclusive: 16.4 µM [inhibitor, single point] |

| SMILES | Potency |
| --- | --- |
| COC(=O)c1ccccc1NC(=O)CSc1nc(-c2ccccc2)cc(C(F)(F)F)n1 | inconclusive: 29.1 µM [inhibitor, single point] |
| COc1ccc(-c2ccc3oc(-c4ccc(OC)cc4)c(C#CCCO)c3c2)cc1 | inconclusive: 13 µM [inhibitor, partial curve] |
| OCCN(CCO)c1cc2c3ccccc3ccc2c2ccccc12 | active: 16.4 µM |
| C/C(=N\NC(=O)COc1cccc(C)c1)c1ccc2ccccc2c1O | inconclusive: 18.4 µM [inhibitor, single point] |
| CCOCCc1nn2c(=O)cc(COC(=O)COc3ccccc3Cl)nc2s1 | inactive |
| COc1ccc(CNCCC(c2ccc(F)cc2)c2ccc(OC(C)C)cc2)cc1OC (stereo unspecified) | active: 14.6 µM |
| N#C/C(C(N)=O)=C1/CCCN1Cc1ccccc1 | inactive |
| COc1ccccc1CNC(=O)CCc1c(C)nc2cc(-c3ccccc3OC)nn2c1C | inconclusive: 18.4 µM [inhibitor, single point] |
| Cc1ccc(NC(=O)CN2CCCN(Cc3ccccc3Cl)S2(=O)=O)c(C)c1 | inconclusive: 18.4 µM [inhibitor, single point] |
| COc1ccc(CNC(=O)Cn2ccc3cc(S(=O)(=O)N4CCCCC4)ccc32)c(OC)c1 | inactive |
| CCN(CC)S(=O)(=O)c1ccc(/C=C/C(=O)OCC(=O)NNC(=O)c2ccc(OC)cc2)cc1 | inactive |
| COc1ccc2c(c1)C1NC(=S)N[C@@](C)(O2)C1C(=O)Nc1ccccc1 (stereo partly specified) | inconclusive: 18.4 µM [inhibitor, single point] |
| O=C(OCC(=O)N1CCCC1)c1cc2c(cc1[N+](=O)[O-])OCCO2 | inactive |
| OCCC1CN(Cc2ccc(F)cc2Cl)CCN1CCc1ccccc1 (stereo unspecified) | inconclusive: 5.17 µM [inhibitor, partial curve] |
| COc1ccccc1-n1cn[nH]c1=S | inconclusive: 18.4 µM [inhibitor, single point] |
| CCc1cccc(OCC(=O)Nc2cc(S(=O)(=O)N3CCOCC3)ccc2N2CCCC2)c1 | inconclusive: 23.1 µM [inhibitor, single point] |
| CSc1ccc(CN2CCC2(C)C(=O)NCc2cccc(C(F)(F)F)c2)cc1 (stereo unspecified) | inconclusive: 23.1 µM [inhibitor, single point] |
| N/C(=N\C(=S)Nc1ccc2c(c1)OCO2)c1ccccc1 | inconclusive: 16.4 µM [inhibitor, single point] |
| Cn1cccc1/C=N\NC(=O)C1COc2ccc(C(C)(C)C)cc2O1 (stereo unspecified) | inconclusive: 25.9 µM [inhibitor, single point] |
| Cc1nn(C)cc1N1C(=O)c2cccc3c(N)ccc(c23)C1=O | inactive |
| O=C(CCNS(=O)(=O)c1cccs1)N1CCN(c2cccc(Cl)c2)CC1 | inconclusive: 20.6 µM [inhibitor, single point] |
| CCOC(=O)N(C)S(=O)(=O)c1ccccc1[N+](=O)[O-] | inconclusive: 9.2 µM [inhibitor, partial curve, poor fit] |
| Cc1ccc(NC(=O)CCCCCN2C(=O)[C@@H]3Cc4ccccc4CN3C2=O)c(Cl)c1 | inconclusive: 29.1 µM [inhibitor, single point] |
| COCC(C)n1c(C)cc(C(=O)COC(=O)c2c(C)nn(-c3ccccc3)c2C)c1C (stereo unspecified) | inconclusive: 29.1 µM [inhibitor, single point] |

| SMILES | Potency |
| --- | --- |
| O=C(O)c1ccc(N/N=C/c2ccc(-c3ccc(Br)cc3)o2)cc1 | inconclusive: 29.1 µM [inhibitor, single point] |
| O=C(CNC(=O)c1ccc2c(c1)S(=O)(=O)N=C1CCCCCN12)Nc1ccc(F)c(F)c1 | inconclusive: 25.9 µM [inhibitor, single point] |
| Cc1ccc(S(=O)(=O)N2C[C@H]3C(=O)C[C@@H](c4ccccc4)N(S(C)(=O)=O)[C@H]3C[C@H]2c2ccccc2)cc1 | inconclusive: 20.6 µM [inhibitor, single point] |
| O=C(NCCCN1CCOCC1)c1cc2c(s1)-c1ccccc1OC2 | inactive |
| Cc1nn(Cc2noc(C(=O)NC3CCC(C)CC3)n2)c(C)c1Br (stereo unspecified) | inconclusive: 20.6 µM [inhibitor, single point] |
| CC(C)(C)NC(=O)/C(=C/c1ccccc1F)NC(=O)c1ccc([N+](=O)[O-])cc1 | inconclusive: 18.4 µM [inhibitor, single point] |
| CCCNc1nc2c(c(=O)[nH]c(=O)n2C)n1Cc1cccc(Br)c1 | inconclusive: 29.1 µM [inhibitor, single point] |
| CCN(CC(=O)Nc1ccc(NC(C)=O)cc1)C(=O)/C=C/c1ccc(S(=O)(=O)N2CCCCCC2)cc1 | inconclusive: 18.4 µM [inhibitor, single point] |
| Cc1cc(C)c(S(=O)(=O)N2C[C@H]3CON(C)[C@H]3C[C@H]2c2ccc(N3CCCCC3)cc2)c(C)c1 | inconclusive: 23.1 µM [inhibitor, single point] |
| N#CCCn1c(=O)cnc2cnc(Oc3ccccc3)nc21 | inactive |
| O=C1OCCC1=COCCOC=C1CCOC1=O | inactive |
| CCOC(=O)c1oc2c(CN3CCN(C)CC3)c(O)ccc2c(=O)c1-c1ccc(Br)cc1 | inactive |
| O=C(Nc1ccncc1)c1ccc2ncsc2c1 | inconclusive: 9.2 µM [inhibitor, partial curve] |
| Cc1noc(C)c1COc1ccc(C(=O)O)cc1 | inactive |
| COc1ccc(-n2nc3c(c2NC(=O)CBr)CSC3)cc1 | inactive |
| COc1ccccc1NC(=O)CCNS(=O)(=O)c1ccc2[nH]c(=O)oc2c1 | inconclusive: 29.1 µM [inhibitor, single point] |
| C=CCCN(Cc1ccccc1)S(=O)(=O)c1cc(Br)ccc1Br | active: 12.6 µM and active: 14.6 µM |
| COCCNC(=S)N(c1ccccc1)C(C)C | inconclusive: 32.6 µM [inhibitor, partial curve, poor fit] |
| CCN(CC)c1ccc(C(=O)N2CCN(Cc3ccccc3)CC2)cc1 | inconclusive: 29.1 µM [inhibitor, single point] |
| Cn1cnc(S(=O)(=O)N2CCc3ccccc32)c1 | inactive |
| OC[C@@H]1CN(Cc2cccs2)C[C@H](n2cnc3c(N4CCN(c5ccccc5)CC4)ncnc32)O1 | inconclusive: 23.1 µM [inhibitor, single point] |
| COc1ccccc1OCC(O)CN1C(=O)NC(C)(C)C1=O (stereo unspecified) | inconclusive: 29.1 µM [inhibitor, single point] |
| CC(=O)Nc1ccc(NC(=O)C(C)Oc2ccccc2C(=O)NCc2ccccc2)cc1 (stereo unspecified) | inconclusive: 16.4 µM [inhibitor, single point] |
